# In the supplement of paper PMC11383711:
# This is one part of the list. Binding of human antibodies (heavy:light variable regions, tested as scFv in one mRNA-display pool) to influenza hemagglutinin, with or without the stem antibody CR9114 bound first. Score = (mean enrichment − median) / interquartile range of that screen; higher = more enriched, 0 = typical non-binder. Active = above the paper's cut-off per screen: stems 28; unblocked H1 Solomon Islands 5, H1 Michigan 3, H3 5, H5 19, H7 2.85, both B 5; blocked 9, 7, H5 10, H7 10, B Phuket 10, B Lee 11.5. Scores are scaled within each screen and are no affinities; replicates correlate at about 0.6 to 0.9, and antibodies rare in the pool are noisier.
# B1: 014-10-1B04 (protein)
# chain 1: QLQESGPGLVKPSETLSLTCTVSGGSISGTSYYRVWIRQPPGKGLEWIGSIYYSGSTHYSPSLKSRVTITEDTSKNQFSLKMISVTAADAAVYYCATGPNFEAFDLWGQGTMVTVSS
# chain 2: QSALTQPRSVSGSPGQSVTISCTGTSSDVGGYNYVSWYQQHPGKAPKLMIYDVSNRPSGVPDRFSGSKSGNTASLTISGLQAEDEADYYCCSYVGSNTFYVIFGGGTKLTVL
# B2: W85-2F05 (protein)
# chain 1: EVQLVESGGGVVQPGRSLRLSCAASGFSFSSYAMHWVRQAPGKGLEWVAVISYDGSNKYYADSVKGRFTISRDNSKITLFLQMNSLRPEDTAIYYCARTTDYNVYYSGMDVWGQGTTVTVSS
# chain 2: QSALTQPASVSGSPGQSITISCTGTSTDIGDYNYVSWYQQHPGRAPKLIIYEVTNRPSGVSNRFSGSKSGYTASLSISGLQAEDEADYYCSSYADGSTPYVFGSATKVT
# B3: R95-1A10 (protein)
# chain 1: EMALVESGGTVVQPGGSLTLSCEVSGFTFDDYAMHWVRQVPGKGLEWVSLISWDAGNTNYADSVKGRFNISRDNTRSILYLQMSSLRPEDTAIYYCTKDDGGGNYDYYRYMDVWGRGTTVTVS
# chain 2: QSALTQPASESGSLGQSITISCTGTSGDVGGYNRVSWYQQHPGKAPRLVIYEGSKRPSGVSSRFSGSKSGNTASLTITGLQAEDEAEYFCSSYAGSITFVFGTGTKVNVL
# B4: W85-2F12 (protein)
# chain 1: QVQLQESGPGLVKPSETLSLTCSVSGGSLSSSTYYWGWIRQPPGKGLEWIGSVYYTGSTDYNPSLRSRVSISIDTSKNQFSLKMSSVTAADTAVFYCARYLQWLAPAPLDCWGQGTLVTVSS
# chain 2: DIVMTQSPDSLAVSLGERATINCKSSQSVLYSSINKNYLAWYQQKPGQPPKLLIYWASTRESGVPGRFSGSGSGTDFTLTIGSLQAEDVAVYYCQQYYSAPLTFGGGTKVEMK
# B5: 01.ae.01 (protein)
# chain 1: QVQLQQWGAGLLKPSEALSLSCAVYGGSFSDYYWNWIRQPPGKGLEWIGEIDNFGSTKYHPSLKSRVTISVDTSKNQFSLKLTSVTAADTAVYYCARVRRPIVAHYYGLDVWGQGTTVTVSS
# chain 2: DIQMTQSPSSLSASIGDRVTITCRASQGISNYLAWYQQRPGKAPKLVIYAASTLQSGVPSRFSGSGSGTYFTLTISSLQPEDFATYYCQQLNTYPRTFGPGTKVDI
# B6: R95-1G06 (protein)
# chain 1: EVQLVESGGGLVRPGGSLRLSCAASGFTFNSYGLNWVRQAPGKGLEWVSSIGSSFGYIYYADSVKGRFTISRDNAKSSLFLQMNSLRVEDTAVYYCTRDGDGYARFDHWGHGTLVSVSS
# chain 2: SYELTQPPSVSVAPGQTARITCGGNSIGSKSVHWYQQKPGQAPVLVVYDDSDRPSGIPERFSGSNSGDTATLTISRVEAGDEADYYCQVWDSRSDHVVFGGGTKLTVL
# B7: W85-2B08 (protein)
# chain 1: EVQLVESGGGLVQAGRSLRLSCTASGFTFGDYGMSWVRQAPGKGLEWVGFIRSKAYGGTTDFAASVKGRFIISRDDSKSIAYLQMHSLKTEDTAVYYCCRDPYSGSYIDSWGRGTLVTVSS
# chain 2: QSALTQPASVSGSPGQSITISCTGTSSDIGGFKYVSWYQQHPGKAPKVMIYEVSDRPSGVSNRFSGSKSGNTASLTISGLQAEDEADYYCSSYTSSSTFVFGTGTKVTVL
# B8: C1-2D03 (protein)
# chain 1: VQLVESGGGLVKPGGSLRLSCAASGFTFSNAWMSWVRQAPGKGLEWVGRIQSQHEGGTTDYAAPVKGRFTISRDESKNTLYLQMNSLKTEDTAVYYCTTASNPYNWNGPYFDYWGQGTLVTVSS
# chain 2: DIQMTQSPSTLSASVGDRVTITCRASQSIGTWLAWYQQKPGKAPKLLIYKASSLESGVPSRFSGSRSGTEFTLTISSLQPDDFATYYCQQYNVYSPMYTFGQGTKVEIK
# B9: 042-10-4C06 (protein)
# chain 1: EVQLVESGGGLVKPGGSLRLSCEVSGLIFKNAWMTWVRQAPGMGLEWVGRIKSKSEGGTADYGTPVRDRFIISRDDSKNMVYLQMDSLQTEDTAVYYCATIGIDYNSRSGYFSFDYWGQGALVTVSS
# chain 2: EIVLTQSPDTLSLSPGERATLFCRASQSVGNSLAWYRQKLGQPPRLLIYDASIRATGIPARFTGSGSGTDFTLTISSLEPEDFAVYYCQQRANWAPFTFGRGTKVEIK
# B10: AG2-F02 (protein)
# chain 1: VQLVESGGGVVQPGRSLSLSCAASGFTFSNYAMHWVRQAPGKGLEWIFHISYDSSNRYSADSVKGRFTLSRDNSKNTLSLQMDSLKVEDTAVYYCARGEVINGPLYYFDYWGHGTLVTVSS
# chain 2: EIVLTQSPATLSLSPGERATLSCRASQSVRYFLAWYQQKPGQAPKLLISDASNRATGIPARFSGSGFGTDFTLTIDNLEPDDSAVYYCQQRSTWAHITFGGGTKVEIK
# B11: 051-10-4G03 (protein)
# chain 1: EVQLVESGGGLVQPGRSLRLSCTASGFTFGDYAMSWVRQAPGKGLEWVGFIRSKRYGGTTEYAASVKDRFTISRDDSKSIASLQMSSLKRDDTAVYYCTRDLVGATTFFLYGMDVWGQGTTVTVSS
# chain 2: DIQMTQSPSSVSASIGDRVTITCRASQDVSTWLAWYQQKPGKAPKLLIYTASSLQSGVPSRFSGSGSGTDFTLTISSLQPEDFATYYCQQANSFPLTFGGGTKVEIK
# B12: W85-1E01 (protein)
# chain 1: EVQLVESGGGLVRPGRSLTLSCATSGFTFGDYGLSWVRQAPGKGLEWVGFIRSKPYGATTEYAASVKGRFTISRDDSKSIAYLQMNSLKIEDTAVYFCGRDPHSGSYLDYWGQGTLVTVSS
# chain 2: QSALTQPASVSGSPGQSITIFCTGTSSDVGGYNYVSWYQQHPGKAPKVMIYEVNNRPSGVSNRFSGSKSGNTASLTISGLQSEDEADYYCSSYTGSSTYVFGSGTKVTV
# Biological target: Influenza A H1N1 A/Michigan/45/2015 hemagglutinin ectodomain
# Test: mRNA display binding score; higher = more enriched on the antigen
# Conditions: antigen blocked with: 2 µM CR9114 IgG
# Method: (§1)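 A pool of natively paired antibodies, displayed as scFv on mRNA, was selected once on antigen-coated beads and sequenced before and after; two replicates.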
row,Binder,mRNA display binding score
1,B1,active: 26.9
2,B2,inactive: -0.228
3,B3,inactive: -0.577
4,B4,inactive: -0.101
5,B5,inactive: -0.293
6,B6,inactive: -0.287
7,B7,inactive: -0.278
8,B8,inactive: -0.277
9,B9,inactive: 2.94
10,B10,inactive: -0.216
11,B11,inactive: -0.207
12,B12,inactive: -0.00758

# Same assay, conditions: antigen blocked with: nothing
row,Binder,mRNA display binding score
1,B1,active: 5.41
2,B2,inactive: -0.166
3,B3,inactive: -0.738
4,B4,inactive: -0.378
5,B5,inactive: -0.617
6,B6,inactive: -0.374
7,B7,inactive: -0.47
8,B8,inactive: 0.0065
9,B9,inactive: 0.00948
10,B10,inactive: 0.972
11,B11,inactive: -0.195
12,B12,inactive: -0.585

# Biological target: Influenza A H1N1 A/Solomon Islands/3/2006 hemagglutinin ectodomain
# Test: as above
# Conditions: antigen blocked with: 2 µM CR9114 IgG
# Method: as §1
row,Binder,mRNA display binding score
1,B1,inactive: 0.459
2,B2,inactive: -0.283
3,B3,inactive: -0.493
4,B4,inactive: 0.0643
5,B5,inactive: -0.408
6,B6,inactive: -0.7
7,B7,inactive: -0.339
8,B8,inactive: -0.174
9,B9,inactive: -0.216
10,B10,inactive: 1.15
11,B11,inactive: 0.456
12,B12,inactive: -0.0346

# Same assay, conditions: antigen blocked with: nothing
row,Binder,mRNA display binding score
1,B1,inactive: 1.33
2,B2,inactive: 0.664
3,B3,inactive: -0.55
4,B4,inactive: -0.428
5,B5,inactive: -0.111
6,B6,inactive: -0.25
7,B7,inactive: -0.276
8,B8,inactive: 1.1
9,B9,inactive: -0.336
10,B10,inactive: 0.869
11,B11,inactive: -0.524
12,B12,inactive: 0

# Biological target: Influenza A H3N2 A/Singapore/INFIMH-16-0019/2016 hemagglutinin ectodomain
# Test: as above
# Conditions: antigen blocked with: nothing
# Method: as §1
row,Binder,mRNA display binding score
1,B1,inactive: 0.294
2,B2,inactive: -0.437
3,B3,inactive: 0.207
4,B4,inactive: -0.55
5,B5,inactive: -0.303
6,B6,inactive: -0.0577
7,B7,inactive: 0.0487
8,B8,inactive: 0.0648
9,B9,inactive: -0.529
10,B10,inactive: -0.505
11,B11,inactive: -0.401
12,B12,inactive: -0.331

# Biological target: Influenza A H5N1 A/Qinghai/1A/2005 hemagglutinin ectodomain
# Test: as above
# Conditions: antigen blocked with: 2 µM CR9114 IgG
# Method: as §1
row,Binder,mRNA display binding score
1,B1,inactive: -0.717
2,B2,inactive: 0.474
3,B3,inactive: -0.559
4,B4,inactive: -0.14
5,B5,inactive: -0.704
6,B6,inactive: -0.603
7,B7,inactive: -0.5
8,B8,inactive: 1.91
9,B9,inactive: -0.678
10,B10,inactive: 1.35
11,B11,inactive: -0.0602
12,B12,inactive: -0.775

# Same assay, conditions: antigen blocked with: nothing
row,Binder,mRNA display binding score
1,B1,inactive: 2.46
2,B2,inactive: 1.99
3,B3,inactive: -0.481
4,B4,inactive: -0.473
5,B5,inactive: -0.57
6,B6,inactive: -0.601
7,B7,inactive: -0.582
8,B8,inactive: 5.7
9,B9,inactive: -0.301
10,B10,inactive: -0.216
11,B11,inactive: -0.0734
12,B12,inactive: -0.382

# Biological target: Influenza A H7N9 A/Shanghai/2/2013 hemagglutinin ectodomain
# Test: as above
# Conditions: antigen blocked with: 2 µM CR9114 IgG
# Method: as §1
row,Binder,mRNA display binding score
1,B1,inactive: 2.98
2,B2,inactive: -1.24
3,B3,inactive: -0.858
4,B4,inactive: -0.338
5,B5,inactive: -0.639
6,B6,inactive: -1.3
7,B7,inactive: 0.0332
8,B8,inactive: -0.412
9,B9,inactive: -0.415
10,B10,inactive: 1.39
11,B11,inactive: 0.516
12,B12,inactive: 1.15

# Same assay, conditions: antigen blocked with: nothing
row,Binder,mRNA display binding score
1,B1,inactive: 0.00296
2,B2,inactive: 0.068
3,B3,inactive: -0.775
4,B4,inactive: -0.0935
5,B5,inactive: -0.47
6,B6,inactive: -0.507
7,B7,inactive: -0.522
8,B8,inactive: -0.366
9,B9,inactive: -0.35
10,B10,inactive: 1.14
11,B11,inactive: -0.308
12,B12,inactive: -0.282

# Biological target: Influenza B/Lee/1940 hemagglutinin ectodomain
# Test: as above
# Conditions: antigen blocked with: 2 µM CR9114 IgG
# Method: as §1
row,Binder,mRNA display binding score
1,B1,inactive: 0.364
2,B2,inactive: -1.37
3,B3,inactive: 0.415
4,B4,inactive: -0.253
5,B5,inactive: -0.59
6,B6,inactive: -0.292
7,B7,inactive: -0.141
8,B8,inactive: 1.79
9,B9,inactive: -0.224
10,B10,inactive: -0.586
11,B11,inactive: -0.181
12,B12,inactive: 0.0853

# Same assay, conditions: antigen blocked with: nothing
row,Binder,mRNA display binding score
1,B1,inactive: 2.79
2,B2,inactive: -0.0419
3,B3,inactive: -0.227
4,B4,inactive: -0.311
5,B5,inactive: -0.165
6,B6,inactive: -0.158
7,B7,inactive: -0.364
8,B8,active: 80.4
9,B9,inactive: -0.396
10,B10,inactive: -0.0409
11,B11,inactive: -0.247
12,B12,inactive: 0.312

# Biological target: Influenza B/Phuket/3073/2013 hemagglutinin ectodomain
# Test: as above
# Conditions: antigen blocked with: 2 µM CR9114 IgG
# Method: as §1
row,Binder,mRNA display binding score
1,B1,inactive: -0.246
2,B2,active: 12.4
3,B3,active: 12.6
4,B4,inactive: -0.544
5,B5,inactive: -0.42
6,B6,inactive: -0.456
7,B7,inactive: -0.42
8,B8,active: 23.4
9,B9,inactive: -0.175
10,B10,inactive: -0.0518
11,B11,inactive: -0.402
12,B12,inactive: 0.534

# Same assay, conditions: antigen blocked with: nothing
row,Binder,mRNA display binding score
1,B1,inactive: 2.16
2,B2,active: 11.3
3,B3,inactive: 4.94
4,B4,inactive: -0.0393
5,B5,inactive: -0.361
6,B6,inactive: -0.386
7,B7,inactive: 0.0505
8,B8,active: 47.6
9,B9,inactive: -0.289
10,B10,inactive: 1.22
11,B11,inactive: -0.18
12,B12,inactive: 0.0787
